As a reminder, the Kd is the concentration at which binding is half-saturated. Lower therefore signals tighter binding.

The text below walks through data of US20230340152A1 (published 2023).

Changes are numbered by the printed parent chain. Numbers in names are those of the source.

Test [1] concerns the target T1, Human CD73 ECD (human, UniProt P21589 27-549).
T1 construct: Biotinylated in some assays; also called human CD73 extracellular domain; huCD73
T1 sequence: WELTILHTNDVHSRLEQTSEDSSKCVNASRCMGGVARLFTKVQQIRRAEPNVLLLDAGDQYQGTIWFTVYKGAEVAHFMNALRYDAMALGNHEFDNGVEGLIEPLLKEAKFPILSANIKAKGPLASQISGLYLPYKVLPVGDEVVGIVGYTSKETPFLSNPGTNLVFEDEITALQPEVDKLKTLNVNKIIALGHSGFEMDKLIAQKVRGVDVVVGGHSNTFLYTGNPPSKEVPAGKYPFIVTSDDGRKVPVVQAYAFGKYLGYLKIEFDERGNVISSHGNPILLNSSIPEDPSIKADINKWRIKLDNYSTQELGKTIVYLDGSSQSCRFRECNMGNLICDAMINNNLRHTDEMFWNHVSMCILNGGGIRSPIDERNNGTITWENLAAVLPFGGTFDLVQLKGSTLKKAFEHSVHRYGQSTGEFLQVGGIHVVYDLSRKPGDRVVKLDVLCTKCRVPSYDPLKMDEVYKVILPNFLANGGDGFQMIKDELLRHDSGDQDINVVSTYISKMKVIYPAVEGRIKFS
Put plainly: SPR (Proteon).

The target of test [2] is T2, Human CD73 on cells (MDA-MB-231, Jurkat CD73 knock-in, NCI-H322) (human, UniProt P21589 27-549).
T2 construct: GPI-anchored native protein; also called native human CD73
T2 sequence: T1 sequence
As to the kind of experiment: flow cytometry on cells. On the technique in general: Flow cytometry measures light scatter and fluorescence of single cells or particles in a stream.

In test [3] the target is T3, Murine CD73 on cells (4T1, Jurkat mCD73 knock-in) (murine, UniProt Q61503 29-551).
T3 construct: whole, on cells; also called 4T1 (murine)
T3 sequence (looked up): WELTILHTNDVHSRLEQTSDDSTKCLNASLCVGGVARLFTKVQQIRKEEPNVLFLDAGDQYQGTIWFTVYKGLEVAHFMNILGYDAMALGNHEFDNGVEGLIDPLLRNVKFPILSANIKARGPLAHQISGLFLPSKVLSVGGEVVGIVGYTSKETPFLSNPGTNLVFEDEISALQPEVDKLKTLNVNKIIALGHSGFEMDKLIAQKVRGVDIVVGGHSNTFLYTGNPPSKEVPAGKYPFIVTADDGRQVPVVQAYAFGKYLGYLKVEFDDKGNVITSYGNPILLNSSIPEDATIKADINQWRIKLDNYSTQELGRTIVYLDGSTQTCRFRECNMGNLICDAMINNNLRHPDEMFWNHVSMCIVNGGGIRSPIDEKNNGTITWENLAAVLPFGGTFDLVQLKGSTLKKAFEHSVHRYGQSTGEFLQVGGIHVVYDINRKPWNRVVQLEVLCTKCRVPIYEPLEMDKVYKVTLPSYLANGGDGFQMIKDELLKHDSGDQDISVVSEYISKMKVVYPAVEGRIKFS
Put plainly: flow cytometry on cells.

The target of test [4] is T4, Cynomolgus CD73 on MK-1 cells (cynomolgus, UniProt A0A2K5V5U7 27-549).
T4 construct: whole, on cells; also called MK-1 (cyno)
T4 sequence: T1 sequence with M199T, T350A, V466I
Put plainly: flow cytometry on cells.

The target of test [5] is T1, Human CD73 ECD. Put plainly: direct ELISA, normalized Fab supernatant, vs CD730010 GL9.
The target in test [6] is T5, Murine CD73 ECD (murine, UniProt Q61503 29-551, limits assumed).
T5 construct: extracellular domain; In-house recombinant ECD; also called murine CD73 extracellular domain; muCD73
T5 sequence (looked up): T3 sequence (looked up)
The test is described as above.

In test [7] the target is T5, Murine CD73 ECD. As to the kind of experiment: SPR (Proteon).
The target of another test is T6, Cynomolgus CD73 ECD (cynomolgus, UniProt A0A2K5V5U7 27-549).
T6 construct: extracellular domain; also called cyno CD73
T6 sequence: T1 sequence with M199T, T350A, V466I
Put plainly: SPR (Proteon).

B1: 73combo6(GRVE+HPT) (antibody, V domains shown)
VH: [not shown - about 100 residues]LGYGRVDEWGRGTLVTVSS
VL: QSVLTQPPSASGTPGQRVTISCSGSLSNIGRNPVNWYQQLPGTAPKLLIYLNNQRPSGVPDRFSGSKSGTSASLAISGLQSEDEADYYCATWDDSHPGWTFGGGTKLTVL
notes: IgG1-TM format; also called clone combo6
Take B1: the Kd came to 0.015 nM in the test with Human CD73 ECD [1], 0.166 nM in test [2], 0.082 nM in test [3] and 0.107 nM in test [4].

B2: CD730010 GL9 VL Q53Y Fab (Fab, V domains shown)
VH: [not shown - about 100 residues]LGYSTIDYWGRGTLVTVSS
VL: B1 VL with Q54Y, H96L, P97N, T100L
notes: Bacterial Fab, normalized supernatant
Regarding B2, the results for the “ELISA signal, fold improvement over parental antibody” value (“ELISA signal, fold improvement” for short) with Human CD73 ECD [5] and in the test with Murine CD73 ECD [6] were 5.8 fold and 2.3 fold, respectively.

B3: P32E (IgG1-TM) (antibody, V domains shown)
VH: [not shown - about 100 residues]LGYSTIDYWGRGTLVTVSS
VL: B1 VL with P33E, H96L, P97N, T100L
notes: IgG1-TM format; also called clone 10 P32E
On to B3, for which the Kd came to 0.063 nM with Human CD73 ECD [1]; 0.035 nM with Murine CD73 ECD [7]; 0.027 nM in the test with Cynomolgus CD73 ECD; 0.178 nM in test [2]; 0.145 nM in test [3]; 0.11 nM in test [4].

B4: CD730010 GL9 VL Q53L Fab (Fab, V domains shown)
VH: [not shown - about 100 residues]LGYSTIDYWGRGTLVTVSS
VL: B1 VL with Q54L, H96L, P97N, T100L
notes: as for B2
Take B4: the “ELISA signal, fold improvement” value with Human CD73 ECD [5] is 6 fold; in the test with Murine CD73 ECD [6], 3.8 fold.

B5: GRVE (antibody, IgG1, V domains shown)
VH: [not shown - about 100 residues]LGYGRVDEWGRGTLVTVSS
VL: B1 VL with H96L, P97N, T100L
notes: also called clone 10 GRVE
For the molecule B5, the Kd amounted to 0.029 nM with Human CD73 ECD [1], 0.125 nM in test [2], 0.088 nM in test [3] and 0.101 nM in test [4].

B6: HPT (antibody, IgG1, V domains shown)
VH: [not shown - about 100 residues]LGYSTIDYWGRGTLVTVSS
VL: B1 VL
notes: also called clone 10 HPT
Consider B6, for which the Kd was found to be 0.548 nM in the test with Human CD73 ECD [1], 0.739 nM in test [2], 5.81 nM in test [3] and 1.14 nM in test [4].

B7: CD730010 GL9 VL Q53H Fab (Fab, V domains shown)
VH: [not shown - about 100 residues]LGYSTIDYWGRGTLVTVSS
VL: B1 VL with Q54H, H96L, P97N, T100L
notes: as for B2
Consider B7, for which the “ELISA signal, fold improvement” value was determined as 2.4 fold with Human CD73 ECD [5] and 1.9 fold in the test with Murine CD73 ECD [6].

B8: CD730010 GL9 VL S56G Fab (Fab, V domains shown)
VH: [not shown - about 100 residues]LGYSTIDYWGRGTLVTVSS
VL: B1 VL with S57G, H96L, P97N, T100L
notes: as for B2
With B8, the entries for the “ELISA signal, fold improvement” value with Human CD73 ECD [5] and with Murine CD73 ECD [6] were 7.1 fold and 5.6 fold, respectively.

B9: CD730010 GL9 VL Q53W Fab (Fab, V domains shown)
VH: [not shown - about 100 residues]LGYSTIDYWGRGTLVTVSS
VL: B1 VL with Q54W, H96L, P97N, T100L
notes: as for B2
B9: the “ELISA signal, fold improvement” value in the test with Human CD73 ECD [5] is 3.1 fold; with Murine CD73 ECD [6] it was 2.7 fold.
